Experiment [1] concerns the target T1, GST-fused NFAT2 protein (human) (UniProt O95644).
T1 sequence: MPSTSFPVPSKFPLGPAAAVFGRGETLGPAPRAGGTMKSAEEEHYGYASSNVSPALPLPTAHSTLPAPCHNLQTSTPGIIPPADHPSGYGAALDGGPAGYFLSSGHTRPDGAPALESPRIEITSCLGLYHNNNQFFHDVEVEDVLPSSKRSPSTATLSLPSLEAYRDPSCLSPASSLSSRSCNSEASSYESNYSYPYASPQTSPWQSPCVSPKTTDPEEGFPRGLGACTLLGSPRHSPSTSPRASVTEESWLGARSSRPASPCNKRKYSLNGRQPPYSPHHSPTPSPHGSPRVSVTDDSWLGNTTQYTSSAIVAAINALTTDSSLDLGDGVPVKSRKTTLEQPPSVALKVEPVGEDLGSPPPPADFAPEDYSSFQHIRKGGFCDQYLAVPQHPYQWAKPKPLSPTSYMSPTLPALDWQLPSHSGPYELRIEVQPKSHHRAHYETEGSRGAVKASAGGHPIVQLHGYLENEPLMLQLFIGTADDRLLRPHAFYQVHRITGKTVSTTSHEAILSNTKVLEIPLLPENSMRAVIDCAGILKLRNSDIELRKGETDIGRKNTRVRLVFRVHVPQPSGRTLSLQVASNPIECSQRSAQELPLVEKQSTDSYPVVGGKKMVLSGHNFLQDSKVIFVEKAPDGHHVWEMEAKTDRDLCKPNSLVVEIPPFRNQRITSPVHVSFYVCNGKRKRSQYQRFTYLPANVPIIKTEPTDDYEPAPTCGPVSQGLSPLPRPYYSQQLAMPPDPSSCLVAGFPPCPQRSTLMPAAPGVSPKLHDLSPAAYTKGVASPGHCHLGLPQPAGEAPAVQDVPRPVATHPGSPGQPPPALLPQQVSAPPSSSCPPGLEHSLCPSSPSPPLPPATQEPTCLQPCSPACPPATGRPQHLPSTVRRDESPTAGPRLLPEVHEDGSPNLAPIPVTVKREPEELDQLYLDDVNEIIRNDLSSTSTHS
Kind of experiment: pull-down; purified GST-NFAT2 bound to Glutathione-Sepharose beads (2 mg of GST fusion protein) incubated with 10 μl of 35S-methionine-labeled in vitro translated protein; autoradiography; only the target purified.

Chains of the proteins cited; added tags and fusions are not shown. Lines headed by an entry give the natural chain unless they say otherwise; changes in a name come on top. Residues count along the entry.
UniProt Q92786: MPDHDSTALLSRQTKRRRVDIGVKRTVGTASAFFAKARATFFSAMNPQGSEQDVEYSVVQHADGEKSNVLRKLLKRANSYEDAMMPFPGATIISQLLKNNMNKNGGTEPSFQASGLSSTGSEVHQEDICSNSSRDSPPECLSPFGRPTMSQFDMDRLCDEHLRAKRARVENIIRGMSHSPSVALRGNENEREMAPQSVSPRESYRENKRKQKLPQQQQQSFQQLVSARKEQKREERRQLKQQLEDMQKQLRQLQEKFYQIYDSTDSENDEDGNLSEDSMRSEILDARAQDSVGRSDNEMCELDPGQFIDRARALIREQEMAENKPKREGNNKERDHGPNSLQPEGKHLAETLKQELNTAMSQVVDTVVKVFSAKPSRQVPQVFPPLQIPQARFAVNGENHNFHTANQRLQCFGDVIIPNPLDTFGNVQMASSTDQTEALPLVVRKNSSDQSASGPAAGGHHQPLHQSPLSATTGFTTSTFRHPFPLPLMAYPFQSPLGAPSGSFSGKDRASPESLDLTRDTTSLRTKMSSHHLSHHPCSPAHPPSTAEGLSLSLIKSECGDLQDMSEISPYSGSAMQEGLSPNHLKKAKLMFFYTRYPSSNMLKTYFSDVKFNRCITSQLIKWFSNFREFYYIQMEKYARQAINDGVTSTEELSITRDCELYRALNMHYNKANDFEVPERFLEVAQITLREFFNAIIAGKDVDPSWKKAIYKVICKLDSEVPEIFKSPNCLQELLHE
Flag-Prox1 N (1-337): residues 1-337 of Q92786
Flag-Prox1 M (335-570): residues 335-570 of Q92786
Flag-Prox1 C (544-738): residues 544-737 of Q92786

Experiment [2] deals with T2, Flag-tagged NFAT2, in Huh7 (human) (UniProt O95644).
T2 sequence: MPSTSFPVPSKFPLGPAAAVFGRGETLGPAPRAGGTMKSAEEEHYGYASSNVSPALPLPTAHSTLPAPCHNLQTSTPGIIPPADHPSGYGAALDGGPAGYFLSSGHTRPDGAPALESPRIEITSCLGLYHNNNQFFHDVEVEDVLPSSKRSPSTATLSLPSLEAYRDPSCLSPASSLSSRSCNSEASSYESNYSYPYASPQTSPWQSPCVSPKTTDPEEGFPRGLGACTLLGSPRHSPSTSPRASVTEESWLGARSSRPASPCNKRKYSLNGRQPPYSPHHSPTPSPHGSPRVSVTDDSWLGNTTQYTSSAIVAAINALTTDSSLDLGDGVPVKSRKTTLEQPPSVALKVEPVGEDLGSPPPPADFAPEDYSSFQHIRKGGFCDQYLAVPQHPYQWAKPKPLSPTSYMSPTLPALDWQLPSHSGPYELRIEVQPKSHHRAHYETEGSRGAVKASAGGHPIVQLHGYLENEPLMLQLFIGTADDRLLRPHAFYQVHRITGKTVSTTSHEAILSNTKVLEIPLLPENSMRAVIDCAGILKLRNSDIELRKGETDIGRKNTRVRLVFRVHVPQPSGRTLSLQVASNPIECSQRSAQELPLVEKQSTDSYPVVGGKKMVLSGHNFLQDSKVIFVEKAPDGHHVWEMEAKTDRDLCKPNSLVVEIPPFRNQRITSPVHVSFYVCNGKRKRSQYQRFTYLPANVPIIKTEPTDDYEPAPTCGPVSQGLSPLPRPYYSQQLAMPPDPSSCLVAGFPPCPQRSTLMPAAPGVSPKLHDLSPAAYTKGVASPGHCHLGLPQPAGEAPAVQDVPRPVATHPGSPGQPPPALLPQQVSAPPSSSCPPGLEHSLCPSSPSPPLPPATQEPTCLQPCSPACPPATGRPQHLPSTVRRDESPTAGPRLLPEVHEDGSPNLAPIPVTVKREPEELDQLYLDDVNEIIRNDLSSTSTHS
Briefly: co-IP; Huh7 cells transiently transfected with Flag-NFAT2, endogenous Prox1; anti-Flag agarose affinity gel for 6 h at 4°C; immunoblot with anti-NFAT2 or anti-Prox1 antibodies. On the technique in general: In western blotting, separated proteins are transferred to a membrane and probed.

Experiment [3] concerns the target T3, Flag-tagged nuclear factor of activated T cells 2 (NFAT2), in HEK293T (human) (UniProt O95644).
T3 sequence: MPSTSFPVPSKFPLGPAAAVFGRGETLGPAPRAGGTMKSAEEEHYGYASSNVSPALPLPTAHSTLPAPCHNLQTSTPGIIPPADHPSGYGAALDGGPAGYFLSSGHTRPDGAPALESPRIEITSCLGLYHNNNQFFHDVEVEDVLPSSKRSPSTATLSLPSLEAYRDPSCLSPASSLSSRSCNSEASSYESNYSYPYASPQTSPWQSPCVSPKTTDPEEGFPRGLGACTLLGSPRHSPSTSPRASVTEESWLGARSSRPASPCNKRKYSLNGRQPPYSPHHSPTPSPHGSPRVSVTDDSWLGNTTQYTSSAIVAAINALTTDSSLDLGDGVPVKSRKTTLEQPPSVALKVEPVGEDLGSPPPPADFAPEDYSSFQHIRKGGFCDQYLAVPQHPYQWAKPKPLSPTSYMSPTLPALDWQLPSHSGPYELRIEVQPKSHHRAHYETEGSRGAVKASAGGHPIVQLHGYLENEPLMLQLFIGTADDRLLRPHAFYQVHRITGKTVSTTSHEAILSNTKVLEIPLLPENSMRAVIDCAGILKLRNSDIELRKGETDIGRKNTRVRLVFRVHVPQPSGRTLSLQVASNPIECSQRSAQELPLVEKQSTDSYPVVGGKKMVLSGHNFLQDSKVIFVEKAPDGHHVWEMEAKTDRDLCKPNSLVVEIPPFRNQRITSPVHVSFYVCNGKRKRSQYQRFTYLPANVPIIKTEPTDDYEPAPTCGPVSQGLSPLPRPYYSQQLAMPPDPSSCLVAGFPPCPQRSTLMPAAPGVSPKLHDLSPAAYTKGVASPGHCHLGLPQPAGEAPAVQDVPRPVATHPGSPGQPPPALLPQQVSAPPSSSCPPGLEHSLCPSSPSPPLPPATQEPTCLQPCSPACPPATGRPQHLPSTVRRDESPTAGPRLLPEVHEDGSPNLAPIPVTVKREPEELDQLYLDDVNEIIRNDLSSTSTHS
Kind of experiment: co-IP; HEK293T cells transiently co-transfected; 1 mg of protein incubated with anti-Flag agarose affinity gel for 6 h at 4°C; immunoblot with anti-Prox1, anti-NFAT2 or anti-Flag antibodies.

For experiment [4], the target named is Flag-tagged Prox1, full length (human) (UniProt Q92786). Described as above.
Experiment [5] deals with Flag-Prox1 C (544-738) (human) (UniProt Q92786). Described as above.
The target of experiment [6] is Flag-Prox1 N (1-337) (human) (UniProt Q92786). The experiment is described as above.
Experiment [7] deals with Flag-Prox1 M (335-570) (human) (UniProt Q92786). The experiment is described as above.

Results are given in words; binding and its absence hold for the method and conditions named. Binding seen in cells or lysates may run through a third protein. Some binding calls cover weakened binding; strength is not graded here. Where a sequence is shown, tags or fusion partners need not be part of it.

Regarding “35S-labeled Prox1 M (335-570) (from UniProt Q92786 335-570) (domain or fragment)”, in experiment [1], the binding result is on record as “no binding”.

As for “Endogenous Prox1 of Huh7 cells (from UniProt Q92786 1-737)”, the binding entry in experiment [2] is listed as “binds”.

As for “35S-labeled Prox1 N (1-337) (from UniProt Q92786 1-337) (domain or fragment)”, the binding result in experiment [1] is on record as “binds”.

For the molecule “Prospero-related homeobox 1 (Prox1), untagged, full length (from UniProt Q92786 1-737)”, the binding entry in experiment [3] is given as “binds”.

Regarding “35S-labeled Prox1 C (544-738) (from UniProt Q92786 544-737) (domain or fragment)”, the binding entry in experiment [1] is recorded as “no binding”.

As to “35S-labeled Prox1, full length (from UniProt Q92786 1-737)”, in experiment [1], the binding entry is “binds”.

B1: Nuclear factor of activated T cells 2 (NFAT2), untagged (protein, UniProt O95644 1-943)
chain: MPSTSFPVPSKFPLGPAAAVFGRGETLGPAPRAGGTMKSAEEEHYGYASSNVSPALPLPTAHSTLPAPCHNLQTSTPGIIPPADHPSGYGAALDGGPAGYFLSSGHTRPDGAPALESPRIEITSCLGLYHNNNQFFHDVEVEDVLPSSKRSPSTATLSLPSLEAYRDPSCLSPASSLSSRSCNSEASSYESNYSYPYASPQTSPWQSPCVSPKTTDPEEGFPRGLGACTLLGSPRHSPSTSPRASVTEESWLGARSSRPASPCNKRKYSLNGRQPPYSPHHSPTPSPHGSPRVSVTDDSWLGNTTQYTSSAIVAAINALTTDSSLDLGDGVPVKSRKTTLEQPPSVALKVEPVGEDLGSPPPPADFAPEDYSSFQHIRKGGFCDQYLAVPQHPYQWAKPKPLSPTSYMSPTLPALDWQLPSHSGPYELRIEVQPKSHHRAHYETEGSRGAVKASAGGHPIVQLHGYLENEPLMLQLFIGTADDRLLRPHAFYQVHRITGKTVSTTSHEAILSNTKVLEIPLLPENSMRAVIDCAGILKLRNSDIELRKGETDIGRKNTRVRLVFRVHVPQPSGRTLSLQVASNPIECSQRSAQELPLVEKQSTDSYPVVGGKKMVLSGHNFLQDSKVIFVEKAPDGHHVWEMEAKTDRDLCKPNSLVVEIPPFRNQRITSPVHVSFYVCNGKRKRSQYQRFTYLPANVPIIKTEPTDDYEPAPTCGPVSQGLSPLPRPYYSQQLAMPPDPSSCLVAGFPPCPQRSTLMPAAPGVSPKLHDLSPAAYTKGVASPGHCHLGLPQPAGEAPAVQDVPRPVATHPGSPGQPPPALLPQQVSAPPSSSCPPGLEHSLCPSSPSPPLPPATQEPTCLQPCSPACPPATGRPQHLPSTVRRDESPTAGPRLLPEVHEDGSPNLAPIPVTVKREPEELDQLYLDDVNEIIRNDLSSTSTHS
Turning to B1, the binding result in experiment [4] is listed as “binds”; in experiment [5] it was “no binding”; in experiment [6], “binds”; in experiment [7], “no binding”.
